# Some of the results follow. Sequences were assembled here from the parent chain. Inactive controls read about 0.05.
# B1: TEV protease; numbered along this chain (parent)
# chain: MGESLFKGPRDYNPISSSICHLTNESDGHTTSLYGIGFGPFIITNKHLFRRNNGTLVVQSLHGVFKVKDTTTLQQHLVDGRDMIIIRMPKDFPPFPQKLKFREPQREERICLVTTNFQTKSMSSMVSDTSCTFPSGDGIFWKHWIQTKDGQCGSPLVSTRDGFIVGIHSASNFTNTNNYFTSVPKNFMELLTNQEAQQWVSGWRLNADSVLWGGHKVFMVKPEEPFQPVKEATQL
# Variants of: B1
# Test: raw area under fraction-flipped curve 0-4 h after induction (AUC4h, not background-subtracted), DNA-recorder readout of cleavage of the substrate (dimensionless); higher = more cleavage of the substrate by the protease variant
# Conditions: temperature: 34 °C; time window: 0-4 h after rhamnose induction
# Protocol: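 In vivo DNA recorder in E. coli TOP10(DE3) ΔrhaA at 34 °C. Each TEVp single-site mutant (parent TEVp 0) is paired with a single-site variant of the 7-mer TEVs (canonical ENLYFQ|S). The substrate sits between flexible linkers in a Bxb1-sfGFP-TEVs-SsrA fusion, so cleavage stabilises Bxb1 and speeds flipping of a recombination array, read by NGS. The value is the raw area under the fraction-flipped curve over 0-4 h after rhamnose induction (AUC4h), with ≥20 reads per time point. It is not background-subtracted; inactive controls average about 0.047.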
# 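Also: Bxb1 expression induced with 0.2% (w/v) L-rhamnose at OD600 near 0.5, cultures sampled hourly, flipped fraction per protease–substrate barcode pair counted by paired-end Illumina sequencing.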
Variant,area with substrate ENLYAQS,area with substrate ENLYDQS,area with substrate ENLYEQS,area with substrate ENLYGQS,area with substrate ENLYHQS,area with substrate ENLYIQS,area with substrate ENLYKQS,area with substrate ENLYMQS,area with substrate ENLYNQS,area with substrate ENLYPQS,area with substrate ENLYRQS,area with substrate ENLYSQS,area with substrate ENLYTQS,area with substrate ENLYVQS,area with substrate ENLYWQS,area with substrate ENLYYQS,area with substrate ENLYQQS,area with substrate ENLYLQS,area with substrate ENLYCQS
MGESLFKGPRDYNPISSSICHLTNESDGHTTSLYGIGFGPFIITNKHLFRRNNGTLVVQSLHGVFKVKDTTTLQQHLVDGRDMIIIRMPKDFPPFPQKLKFREPQREERICLVTTNFQTKSMSSMVSDTSCTFPSGDGIFWKHWIQTKDGQCGSPLVSTRDGFIVGIHSASNFTNTNNYFTSVPKNFMELLTNQEAQQWVSGWRLNADSVLWGGHKVFMVKPEEVFQPVKEATQL [P225V],0.0882,0.053,0.0647,0.0676,0.068,0.127,0.0586,0.0666,0.0692,0.0733,0.0572,0.0545,0.113,0.0758,0.0763,0.0705,,,
MGESLFKGPRDYNPISSSICHLTNESDGHTTSLYGIGFGPFIITNKHLFRRNNGTLVVQSLHGVFKVKDTTTLQQHLVDGRDMIIIRMPKDFPPFPQKLKFREPQREERICLVTTNFQTKSMSSMVSDTSCTFPSGDGIFWKHWIQTKDGQCGSPLVSTRDGFIVGIHSASNFTNTNNYFTSVPKNFMEHLTNQEAQQWVSGWRLNADSVLWGGHKVFMVKPEEPFQPVKEATQL [L190H],0.0555,,0.0591,,0.0571,0.0941,0.0761,0.0757,0.0735,0.069,,0.0679,,0.0862,0.0712,0.059,0.0646,,
MGESLFKGPRDYNPISSSICHLTNESDGHTTSLYGIGFGPFIITNKHLFRRNNGTLVVQSLHGVFKVKDTTTLQQHLVDGRDMIIIRMPKDFPPFPQKLKFREPQREERICLVTTNFQTKSMSSMVSDTSCTFPSGDGIFWKHWIQTKDGQCGSPLVSTRDGFIVGIHSASNFTNTNNYFTSVPKNFMELLTNQEAQQWVSGWRLNADSVLWGGHKVFMVKPEEPFQPVKEATLL [Q234L],0.0731,,0.0742,0.0693,0.0693,,,0.0771,0.0733,0.0662,0.0638,,,0.123,,0.0575,,0.0725,
MGESLFKGPRDYNPISSSICHLTNESDGHTTSLYGIGFGPFIITNKHLFRRNNGTLVVQSLHGVFKVKDTTTLQQHLVDGRDMIIIRMPKDYPPFPQKLKFREPQREERICLVTTNFQTKSMSSMVSDTSCTFPSGDGIFWKHWIQTKDGQCGSPLVSTRDGFIVGIHSASNFTNTNNYFTSVPKNFMELLTNQEAQQWVSGWRLNADSVLWGGHKVFMVKPEEPFQPVKEATQL [F92Y],,,0.0656,0.0702,0.0535,,,0.0615,0.0823,0.0587,,,,0.136,0.081,,0.0653,0.0804,0.0811
MGESLFKGPRDYNPISSSICHLTNESDGHTTSLYGIGFGPFIITNKHLFRRNNGTLVVQSLHGVFKVKDTTTLQQHLVDGRDMIIIRMPKDFPPFPQKPKFREPQREERICLVTTNFQTKSMSSMVSDTSCTFPSGDGIFWKHWIQTKDGQCGSPLVSTRDGFIVGIHSASNFTNTNNYFTSVPKNFMELLTNQEAQQWVSGWRLNADSVLWGGHKVFMVKPEEPFQPVKEATQL [L99P],0.0755,0.0656,0.067,0.0596,0.07,0.111,0.0231,,0.0695,0.0945,,,0.0727,,0.0732,,0.0634,,
MGESLFKGPRDYNPISSSICHLTNESDGHTTSLYGIGFGPFIITNKHLFRRNNGTLVVQSLHGVFKVKDTTTLQQHLVDGRDMIIIRMPKDFPPFPQKLKFREPQREERICLVTTNFQTKSMSSMVSDTSCTFPSGDGIFWKHWIQTKDGQCGSPLVSTRDGFIVGIHSASNFTNTNNYFTSVPKNFMELLTNQEAQQWVSGWRLNADSVLWGGHKVFMNKPEEPFQPVKEATQL [V220N],,0.0589,0.06,0.0652,0.0659,,0.0704,0.0818,0.0752,,,,,,0.119,0.0522,0.0633,,0.0858
MGESLFKGPRDYNPISSSICHLTNESDGHTTSLYGIGFGPFIITNKHLFRRNNGTLVVQSLHGVFKVKDTTTLQQHLVDGRDMIIIRMPKDFPPFPQKLKFREPQREERICLVTTNFQTKSMSSMVSDTSCTFPSGDGIFWKHWIQTKDGQCGSPLVSTRDGFIVGYHSASNFTNTNNYFTSVPKNFMELLTNQEAQQWVSGWRLNADSVLWGGHKVFMVKPEEPFQPVKEATQL [I167Y],0.0557,,0.0623,0.0629,0.0701,0.0688,0.0665,,0.06,,0.066,,0.066,0.0887,,,,,
MGESLFKGPRDYNPISSSICHLTNESDGHTTSLYGIGFGPFIITNKHLFRRNNGTLVVQSLHGVFKVKDTTTLQQHLVDGRDMIIIRMPKDFPPFPQMLKFREPQREERICLVTTNFQTKSMSSMVSDTSCTFPSGDGIFWKHWIQTKDGQCGSPLVSTRDGFIVGIHSASNFTNTNNYFTSVPKNFMELLTNQEAQQWVSGWRLNADSVLWGGHKVFMVKPEEPFQPVKEATQL [K98M],0.0845,0.0568,,0.0699,0.0622,0.109,0.0766,0.118,,0.072,0.0514,,,,0.0672,,,,
MGESLFKGPRDYNPISSSIPHLTNESDGHTTSLYGIGFGPFIITNKHLFRRNNGTLVVQSLHGVFKVKDTTTLQQHLVDGRDMIIIRMPKDFPPFPQKLKFREPQREERICLVTTNFQTKSMSSMVSDTSCTFPSGDGIFWKHWIQTKDGQCGSPLVSTRDGFIVGIHSASNFTNTNNYFTSVPKNFMELLTNQEAQQWVSGWRLNADSVLWGGHKVFMVKPEEPFQPVKEATQL [C20P],0.0691,0.0419,0.0503,0.0521,0.0535,0.0568,0.0474,0.0579,0.0451,0.0432,0.0466,,0.0631,0.0758,0.0495,,0.052,0.0603,0.0511
